In the supplement of paper PMC7125110:
± gives the standard error. Variants at the floor of the assay are shown more often than the library holds them.

B1: glmS ribozyme (parent)
chain: AUAAAAGCGCCAGAACUACAGAAAUGUAGUUGACGAGGAGGAGGUUUAUCGAAUUUUCGGCGGAUGCCUCCAAA

How the values were obtained:
Conditions in all cases: with glucosamine-6-phosphate
glucosamine-6-phosphate [1] = variants of: B1; test: self-cleavage kobs at 40 uM GlcN6P; higher = faster cleavage; RNA array
Outline: (§1)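 Tracking of barcoded ribozyme variants used a hybridised Cy3 probe at 37 °C, after in situ transcription by E. coli RNA polymerase on sequenced MiSeq chips. The flowed solution held 40 μM to 10 mM glucosamine-6-phosphate in HEPES/KCl/Mg(OAc)2 buffer, and imaging ran over ~14 h. kobs was taken from exponential decay fits of normalised per-tile medians, and kcat and KM from weighted Michaelis–Menten fits.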

glucosamine-6-phosphate [2] = variants of: B1; test: self-cleavage kobs at 640 uM GlcN6P; higher = faster cleavage; RNA array
Outline: as §1

glucosamine-6-phosphate [3] = variants of: B1; test: self-cleavage kobs at 160 uM GlcN6P; higher = faster cleavage; RNA array
Outline: as §1

glucosamine-6-phosphate [4] = variants of: B1; test: self-cleavage kobs at 2500 uM GlcN6P; higher = faster cleavage; RNA array
Outline: as §1

glucosamine-6-phosphate [5] = variants of: B1; test: self-cleavage kobs at 10000 uM GlcN6P; higher = faster cleavage; RNA array
Outline: as §1

Variant | self-cleavage kobs at 40 uM GlcN6P (glucosamine-6-phosphate [1]) [s⁻¹] | self-cleavage kobs at 640 uM GlcN6P (glucosamine-6-phosphate [2]) [s⁻¹] | self-cleavage kobs at 160 uM GlcN6P (glucosamine-6-phosphate [3]) [s⁻¹] | self-cleavage kobs at 2500 uM GlcN6P (glucosamine-6-phosphate [4]) [s⁻¹] | self-cleavage kobs at 10000 uM GlcN6P (glucosamine-6-phosphate [5]) [s⁻¹]
A12C U46G | 8.74e-05 ± 1.3e-05 | 0.000761 ± 0.00012 | 0.000221 ± 3.6e-05 | 0.002 ± 0.00032 | 0.00278 ± 0.00064
C11G U56A | < 1e-05 | < 1e-05 |  | < 1e-05 | 
A12G U57A | < 1e-05 |  |  |  | 4.27e-05 ± 9.1e-06
A12C G35U | < 1e-05 |  |  |  | 
G13U A36G | < 1e-05 | < 1e-05 | < 1e-05 | < 1e-05 | < 1e-05
C11G A14G | < 1e-05 |  |  |  | 
G13U A53G G62A | < 1e-05 |  |  |  | 
C10U U57A G62C | < 1e-05 |  |  |  | 
A12C U49A | < 1e-05 |  | < 1e-05 |  | 
A12C G62A | < 1e-05 | < 1e-05 | < 1e-05 |  | < 1e-05
C10U G32U A64C | < 1e-05 |  |  |  | < 1e-05
C10U A64G C68A | < 1e-05 |  |  |  | 
A12G A52U C61U | < 1e-05 |  |  |  | 
C10U A33C A36U A52U U65G C70A | < 1e-05 |  |  |  | 
G13U C16A C50U | < 1e-05 |  |  |  | < 1e-05
C11A A42U | < 1e-05 |  | < 1e-05 | < 1e-05 | < 1e-05
G13U U49C | < 1e-05 | < 1e-05 |  | < 1e-05 | < 1e-05
A12C G38C | < 1e-05 |  |  |  | < 1e-05
A14G G29C U56A | 3.76e-05 ± 1.8e-05 | 0.000364 ± 8.4e-05 |  | 0.000647 ± 0.00014 | 0.00136 ± 0.00029
C11G G35C C67A | < 1e-05 |  |  | < 1e-05 | < 1e-05
C10U C58A C68A | < 1e-05 |  |  |  | 
A14U G37U | < 1e-05 | < 1e-05 |  |  | < 1e-05

Variant | self-cleavage kobs at 40 uM GlcN6P (glucosamine-6-phosphate [1]) [s⁻¹] | self-cleavage kobs at 640 uM GlcN6P (glucosamine-6-phosphate [2]) [s⁻¹] | self-cleavage kobs at 160 uM GlcN6P (glucosamine-6-phosphate [3]) [s⁻¹] | self-cleavage kobs at 2500 uM GlcN6P (glucosamine-6-phosphate [4]) [s⁻¹] | self-cleavage kobs at 10000 uM GlcN6P (glucosamine-6-phosphate [5]) [s⁻¹]
C10U C67A | < 1e-05 |  |  |  | 
G13C C71A | < 1e-05 |  |  |  | 
C11U G38U G40C | < 1e-05 |  |  | < 1e-05 | 
A12U A48G C68A | < 1e-05 |  |  |  | 
C11A G35U | < 1e-05 | < 1e-05 |  | < 1e-05 | < 1e-05
C11A G35A | < 1e-05 | < 1e-05 | < 1e-05 |  | 
A15C G38A | < 1e-05 | < 1e-05 |  | < 1e-05 | 
G13C U49A | < 1e-05 |  |  |  | < 1e-05
C11A U47G | < 1e-05 |  |  |  | 
A14G U31C G41C G63A | < 1e-05 |  |  |  | < 1e-05
C11U U57G | < 1e-05 | < 1e-05 |  |  | 
C11U G40C | < 1e-05 |  |  |  | 
A12G G44A | < 1e-05 |  | < 1e-05 |  | 
A12C G37U G66U | < 1e-05 |  |  |  | 
A12U G29A | 0.00084 ± 0.00025 | 0.00253 ± 0.00054 | 0.000905 ± 0.0002 |  | 
G13C G40A | < 1e-05 |  |  |  | 
G13A G29C | < 1e-05 |  |  |  | 
G13U A53G | 2.14e-05 ± 9.7e-06 | 0.00029 ± 3.4e-05 | 8.17e-05 ± 1e-05 |  | 
A14C A15C | 4.27e-05 ± 6.9e-06 |  |  |  | 
A12C A64G C68A | < 1e-05 |  |  |  | 
A14C G60C | < 1e-05 |  |  |  | 
G13C C34G | < 1e-05 | < 1e-05 | < 1e-05 | < 1e-05 | < 1e-05

Variant | self-cleavage kobs at 40 uM GlcN6P (glucosamine-6-phosphate [1]) [s⁻¹] | self-cleavage kobs at 640 uM GlcN6P (glucosamine-6-phosphate [2]) [s⁻¹] | self-cleavage kobs at 160 uM GlcN6P (glucosamine-6-phosphate [3]) [s⁻¹] | self-cleavage kobs at 2500 uM GlcN6P (glucosamine-6-phosphate [4]) [s⁻¹] | self-cleavage kobs at 10000 uM GlcN6P (glucosamine-6-phosphate [5]) [s⁻¹]
G13C A33C U55C U69G | < 1e-05 | < 1e-05 |  | < 1e-05 | < 1e-05
C11U C50G C58A | 0.000112 ± 3.6e-05 | 0.000189 ± 3e-05 | 0.00015 ± 1.7e-05 |  | 
A15C G43U | < 1e-05 | < 1e-05 | < 1e-05 |  | 
C10U G13A A15U G63U | < 1e-05 | < 1e-05 |  |  | 
G13A A36G | < 1e-05 | < 1e-05 | < 1e-05 | < 1e-05 | < 1e-05
G13A A36U | < 1e-05 | < 1e-05 | < 1e-05 | < 1e-05 | < 1e-05
A14C C16U A36G U47G | < 1e-05 |  |  |  | < 1e-05
G13U C34A U49A U65C | < 1e-05 |  |  |  | < 1e-05
G13A C50A U69G | 4.48e-05 ± 2.2e-05 |  |  |  | 
A14G U45G | 0.000286 ± 0.0001 | 0.00617 ± 0.0025 | 0.000908 ± 0.00024 | 0.00864 ± 0.003 | 0.0175 ± 0.0071
G13C A33U | < 1e-05 | < 1e-05 | < 1e-05 |  | < 1e-05
C11A A14U G66U C67A | < 1e-05 |  |  |  | 
C11A G38A | < 1e-05 | < 1e-05 | < 1e-05 | < 1e-05 | < 1e-05
A14U A15C | < 1e-05 |  |  |  | 
C10U G41C U45G | < 1e-05 |  |  |  | 
C11G G38C | < 1e-05 | < 1e-05 |  | < 1e-05 | 
C11U C58G | < 1e-05 |  |  |  | 
G13C C67U | < 1e-05 |  | < 1e-05 |  | 
A14U G40A G51U | < 1e-05 |  |  |  | 
A14U A39C | 2.83e-05 ± 7.2e-06 |  |  |  | 
A14G G60C | < 1e-05 |  | < 1e-05 |  | 
A12G C58G A64U | < 1e-05 |  |  |  | < 1e-05

Variant | self-cleavage kobs at 40 uM GlcN6P (glucosamine-6-phosphate [1]) [s⁻¹] | self-cleavage kobs at 640 uM GlcN6P (glucosamine-6-phosphate [2]) [s⁻¹] | self-cleavage kobs at 160 uM GlcN6P (glucosamine-6-phosphate [3]) [s⁻¹] | self-cleavage kobs at 2500 uM GlcN6P (glucosamine-6-phosphate [4]) [s⁻¹] | self-cleavage kobs at 10000 uM GlcN6P (glucosamine-6-phosphate [5]) [s⁻¹]
A12U A33U U47G U49G U55G C68U | < 1e-05 |  |  |  | 
A14G C16U U45G C67U | 0.00026 ± 6.6e-05 | 0.00248 ± 0.0012 | 0.000132 ± 3e-05 | 0.00988 ± 0.0035 | 
G13U G32A C50U | < 1e-05 |  |  | < 1e-05 | 
A14U G37C A52U | < 1e-05 |  |  |  | 
C11G U30C G35U G62C | < 1e-05 |  |  |  | 
G13U A42G G60U A64U C71U | < 1e-05 |  |  |  | 
A12G U30A | < 1e-05 |  |  |  | 
C10U A48U | < 1e-05 | < 1e-05 | < 1e-05 |  | < 1e-05
C11U C16G U49G | < 1e-05 | < 1e-05 | < 1e-05 | < 1e-05 | 
A12U C71U | 0.00207 ± 0.00018 | 0.0214 ± 0.0049 | 0.00891 ± 0.0017 | 0.0611 ± 0.02 | 0.0826 ± 0.025
A14G U49G | 7.8e-05 ± 1.6e-05 | 0.000937 ± 0.00022 |  | 0.00109 ± 0.0003 | 0.00302 ± 0.00044
C10U G63U | < 1e-05 | < 1e-05 |  |  | < 1e-05
C11U A14G G60U C70U | < 1e-05 |  |  |  | 
C11U C16U U31C U56G A64U | < 1e-05 | < 1e-05 |  |  | 
A12G U31A G32U | < 1e-05 |  |  |  | 4.08e-05 ± 1.1e-05
C11U G29U A39U A64U | < 1e-05 |  |  |  | 
C11A G62C | < 1e-05 | < 1e-05 | < 1e-05 | < 1e-05 | 
C11U G44A | < 1e-05 | < 1e-05 | < 1e-05 |  | 
C11U G44C | < 1e-05 | < 1e-05 | < 1e-05 |  | < 1e-05
A14G A15U C67G | 5.43e-05 ± 1.3e-05 |  |  |  | 0.0027 ± 0.00046
A15C G35U G63C | < 1e-05 |  |  |  | 
G13A G66U | < 1e-05 |  |  |  | 

Variant | self-cleavage kobs at 40 uM GlcN6P (glucosamine-6-phosphate [1]) [s⁻¹] | self-cleavage kobs at 640 uM GlcN6P (glucosamine-6-phosphate [2]) [s⁻¹] | self-cleavage kobs at 160 uM GlcN6P (glucosamine-6-phosphate [3]) [s⁻¹] | self-cleavage kobs at 2500 uM GlcN6P (glucosamine-6-phosphate [4]) [s⁻¹] | self-cleavage kobs at 10000 uM GlcN6P (glucosamine-6-phosphate [5]) [s⁻¹]
A14G C58U G62U | < 1e-05 |  |  |  | 
C11G G63C | < 1e-05 | < 1e-05 |  | < 1e-05 | < 1e-05
A12U C61G | < 1e-05 |  |  |  | 
A14C U55A U56G | 0.002 ± 0.00048 | 0.0195 ± 0.0041 |  | 0.0295 ± 0.013 | 
C10U A52G A64U | < 1e-05 |  |  |  | 
C10U A53G | < 1e-05 |  |  |  | 1.69e-05 ± 7.4e-06
C11U A48G A53G | < 1e-05 |  |  |  | 
G13U U31C A33C A48C A52C U56G | < 1e-05 |  |  |  | 
A12G U46A G51C | < 1e-05 | < 1e-05 |  | < 1e-05 | < 1e-05
C10U C61G | < 1e-05 | < 1e-05 |  |  | < 1e-05
C11U C34G A36G G40A A52U C68U | < 1e-05 | < 1e-05 |  | < 1e-05 | < 1e-05
G13U G66C | < 1e-05 |  |  |  | 
C11G G35A U55G | < 1e-05 |  |  |  | < 1e-05
A14C G41C | < 1e-05 |  | < 1e-05 |  | 
A14C G29U C50G | 0.000119 ± 3.7e-05 |  |  |  | 
A12U G29A G41A C50A C67A | < 1e-05 |  |  |  | 
A12G C50U G59U G60A | < 1e-05 |  |  |  | < 1e-05
G13C A14U G60U | < 1e-05 |  |  |  | < 1e-05
